The source gives no read counts; variants with many changes may rest on few reads.

B1: LINE1-full (parent)
chain: UACGUAGGUGGUUUUCCCCUGAUAGUGCUAAGGGGGCCUGGAAGUUUGGACUGGGCAGAGCUCAACACAGCGUGGCAAAGUGGCUGUGGCUAGACUGCCUCUCUGGAUUCCUCGUCACUCAGCAGGGCAUCUCUGAGAGAAAUGCC

In the data set the parent is B1. The data set can be described thus: self-cleavage, relative activity (ratio to wild type); higher = more cleavage; in vitro, sequencing; the parent is a self-cleaving ribozyme.
For the variant A30G A50G A92U, the self-cleavage is 0.
Turning to U13A G27U U46C U85A, the self-cleavage turned out to be 0.06.
The value for C18U G33U A136G A142G was 1.19; that for U115A G122A U132C was 1.93; that for C37G U96C U112C was 0.09.
With U5A A69G U115A U119A the figure was 0.33; with A31G G97U U100C U109A, 0.06.
With U12C G32U G72A A141G the figure was 1.19; with U9C U85A U115C A140G, 0.06; with A59G A117G U143C, 0.
Consider U9A G83A A136U A138G, for which the self-cleavage is 2.04.
With A31U U115A A138G the figure was 0.88; with U26C U46C A138G, 0.57; with A22U U91C C101U, 0.24.
The value for G55A U85A U102C U108C was 0.02; that for A77G U108G A142G was 1.36; that for U15C U46C G54A A57G U104A A140U was 0.11.
As for A22G A42G U46A A57U, the self-cleavage turned out to be 0.23.
U15A C63U A107G: the self-cleavage amounted to 0.27.
With U12C U46A U62C G135A the figure was 0.18; with U26A U52A U102A, 0.98.
The value for U15C U46A A65G G74A U96C U130C was 0.06; that for U26A U39A A50C was 0.42; that for U39C A50G G58U G88U was 0.06.
The value for U39C U62C G83U G122A was 0.03.
Regarding U13C G48U U96A G97A, the self-cleavage is 0.09.
The value for U14C A31U C113A was 0.68; that for U39A A92G A107G U108C A141G was 0.
With U13A A64G U104C, the self-cleavage worked out at 0.08.
With U15A C71A U85A the figure was 0.03; with U14C U85A A138G A141G U143C, 0.09; with A50U U85A U100A, 0.04.
The value for A69C U73A U96A U143C was 0.09; that for U5C A50G U112C was 2.04.
Turning to A30U U47G U100C U134C, the self-cleavage amounted to 1.75.
The value for A79G U104C A138G was 0.9.
Consider U39A U62C U87A C128A, for which the self-cleavage worked out at 0.04.
The value for G11A A42U C66U was 0.04; that for U20A U134C A140G was 1.85; that for C61U A124G A138G A140G was 0.
With A136G A140G C145A the figure was 1.84; with A65G A94G U119A G125A A136U A141G, 0.
The value for U12C U46C U73A U87A was 0.08; that for U39C U52A C90U A94U U115G was 0.05.
Consider G7U G40A A142G, for which the self-cleavage was determined as 1.29.
With U26A A92U A124G U134C the figure was 0.39; with U9A C66U U109C, 0.
The value for U12A A22G G54A U73C was 0.57; that for U5C A6G U14A C111A U132C was 1.18.
The value for U20A A65U A78G A79G was 0.19.
As to U62A A79G U91A U96C, the self-cleavage was found to be 0.1.
The value for U13C U47C U73G was 2.07.
The value for A69U U87C A141G was 0.03.
Consider U15A U20C A22G U39C, for which the self-cleavage came out at 0.79.
For A43G A124G A140C, the self-cleavage came to 0.91.
In the case of A24U U26A C71U A129U U134C A136U, the self-cleavage is 0.41.
With A6U U39A U62C the figure was 0.18; with U73A U115G U119C A129G, 2.45.
With U45C U62C U112C U134C the figure was 0; with A65U A107G U119A U143C C146U, 0.16; with U85A U87A A92U U108C C123U, 0.06.
The value for U20A G27A G33A U109C was 0.66; that for A57G C131U U132C was 0.51; that for U62C U112G A124G was 0.
Turning to A79U U130A A142G, the self-cleavage stood at 2.1.
The value for U23A U85C U87A A117G was 0.14; that for U1C U73A A124U was 1.29; that for U14C U45C U52C U85C was 0.
The value for U13C U14C G89A U96A U108C was 0.16.
For the variant U12C G49U A50U U62A A141U, the self-cleavage came out at 0.06.
The value for U5C U13A U100C was 0; that for G32A U52G C56U A77G U87A A117G was 0.06; that for A77G U81A U132A was 2.48.
Regarding A30U U47C A67U, the self-cleavage came out at 0.32.
With U52C U112C U134C the figure was 0.92; with A31G A50G A77U U87C, 0; with G8A C68U A78G U130C U132C, 0.19.
The value for C66G U81C A141G was 0.04.
Consider A77G U91C U119C, for which the self-cleavage is 2.16.
With A2G U14C A140U the figure was 0; with U9A U134C A138G, 1.8; with A2G A77G A141U, 0.95.
With U5C G54U U102C the figure was 0; with A6U G75C U81C, 0.57; with U9C U14G U15C, 1.31.
With G54A A69U G70C A78G the figure was 0.02; with A78G U132C A136G, 0.31.
Take U26C A57G A79G A121G: the self-cleavage amounted to 1.15.
The value for A77U A78U U108C was 1.73.
With U26A A42G A107G U119C the figure was 1.53.
The value for U9C U134A A141U was 0.75; that for U47C U62C A78G A79G C145U was 0.
Regarding U15C U46C A79G, the self-cleavage was 2.45.
Turning to U39A U96A U102C A129G, the self-cleavage worked out at 0.11.
With U1C U9A U102C the figure was 0.71; with A43G A121C C128A, 0.66.
Regarding A67G G80U U91C, the self-cleavage turned out to be 0.
With U14C U87G A92G the figure was 0.21; with A2G G4U A69G, 1.36; with A42U A94G G125U, 0.24.
The value for U39C U104C U109A was 2.64.
With U96A U109A U112C the figure was 0.06; with A6U A69G U96C, 0; with C61U A65G U87G A94G, 0.05.
As to U15C A22G U47C, the self-cleavage is 0.92.
For the variant A22U A78G A94G, the self-cleavage stood at 0.
The value for U73A U108C U143C was 2.41.
The value for A30U U46C A79G was 1.2.
The value for A43G U104A A124G was 0.23.
U47C U100A U112A: the self-cleavage was 0.95.
The value for U112C U130A G135A A140C was 1.07; that for U12C A69U A79G A140G was 0.04; that for A43G A79G G89C A138G was 0.1.
The value for A57U U85A U134A A141G was 0; that for U12C U96A A121G was 0.14.
U9C U39A U47C U62C A140G A141G: the self-cleavage was 0.
The value for A64U A124G U143C was 0.3; that for U1C U81G A140G was 1.84; that for G93A A117G A124G U130C was 0.
The value for U12G A107G C111A A117G A141G was 1.65; that for U13C U23C U46A A64G was 0.47.
As for U1A U115A A117U A129G, the self-cleavage came to 2.09.
The value for U5C U15A A22G A30G A67U U73C was 1.84.
The value for U13C G83A A94U A129G U130C was 0.22; that for A79U U109C A141G was 1.88.
As to U13C U47C C145U, the self-cleavage came out at 1.31.
The value for U15C U26C G126C was 1.25; that for U47C A50G G54U A57G U96A U115A A138G A140U was 0; that for U52A A117G A138G was 1.93.
With U1C U5C A124G the figure was 0.2; with U13C A30G A59G A78G U104C, 0; with U20G G53A U112A U119C U130C, 1.46.
The value for U14C U47A U85A A138G was 0.
As to G93A U115C A141G, the self-cleavage came to 0.15.
With U14C U26C A50G A94U U112C the figure was 0; with U9C A78G U85A U143C, 0.15.
As for U29A A64G U87C G89A, the self-cleavage is 0.
The value for U81C U100C U102A was 1.95; that for U45C G75C A78U A141G was 1.67.
With U12A A94U A140G the figure was 0.42; with U15C U29C C63U A67U A129G, 0.1.
The value for A2G A50U U85A U87C A141G was 0.29.
For C28U A67C C128U, the self-cleavage came to 0.09.
Take A50U A67G U91C A124U: the self-cleavage was found to be 0.
With A50U U62G U132A the figure was 0.09; with G36A A57U A78G, 0.
With G4U A50U A78G C113A U115C, the self-cleavage is 1.11.
With A2G U23C G72A A78G A136G the figure was 1.24.
The value for A22G A50G A69G was 0.5; that for C51A U87A U134A was 0.02; that for U9C U85A U119C A129U was 0.39.
With A64G A67U A140U the figure was 0.03; with G8U U81A U102C, 2.93.
As to U15C G44A A77C, the self-cleavage is 0.3.
With A69G U104A U112C the figure was 0.15; with G72A U85C G86A U87A, 0.07; with A67U A79G A107U, 0.13.
The value for A2G U104C C123A A142C was 1.16; that for U12C U20C G74U was 1.84.
The value for C38U A92G U102C was 0.09; that for U13G U20C A43G A59U was 1.11.
In the case of A92G U96C C116A A117G U130A, the self-cleavage came to 0.
Consider C68U U87C C116U, for which the self-cleavage was 0.06.
For U14C U52C U73A C98G, the self-cleavage amounted to 0.06.
The value for U14A A94G A138G was 0.16.
The value for U14C A50C U102C A121U was 2.3; that for C63U U87A U102C was 0.07.

Values taken from the RNAGym collection of RNA variant scans (doi:10.7554/elife.90254).
